Data from the supplement of paper PMC4604168 (melanoma cell lines).
This is one part of the list. Many values rest on one well or one pass, so single values are uncertain.

How the values were obtained:
Assay in all cases: cell count relative to DMSO control; melanoma cells; higher = more viable cells
Settings in all cases: library dose: low library concentration; 72 h
MZ2-MEL = tested on: MZ2-MEL
MeWo = tested on: MeWo
RPMI7951 = tested on: RPMI7951
RVH-421 = tested on: RVH-421
SkMel28 = tested on: SkMel28
SkMel2 = tested on: SkMel2
SkMel30 = tested on: SkMel30
SkMel5 = tested on: SkMel5
UACC257 = tested on: UACC257
UACC62 = tested on: UACC62
WM115 = tested on: WM115
WM1716 = tested on: WM1716
WM1745 = tested on: WM1745
WM3526 = tested on: WM3526
WM3619 = tested on: WM3619
WM451Lu = tested on: WM451Lu
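Note: cell number obtained by counting DAPI-stained nuclei in high-throughput microscope images with image analysis software, screen run in 1,536-well plates.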

Row | Compound | cell count (MZ2-MEL) | cell count (MeWo) | cell count (RPMI7951) | cell count (RVH-421) | cell count (SkMel28) | cell count (SkMel2) | cell count (SkMel30) | cell count (SkMel5) | cell count (UACC257) | cell count (UACC62) | cell count (WM115) | cell count (WM1716) | cell count (WM1745) | cell count (WM3526) | cell count (WM3619) | cell count (WM451Lu)
1 | CC1(C)CCC(c2ccc(Cl)cc2)=C(CN2CCN(c3ccc(C(=O)NS(=O)(=O)c4ccc(N[C@H](CCN5CCOCC5)CSc5ccccc5)c(S(=O)(=O)C(F)(F)F)c4)cc3)CC2)C1 + O=C(O)c1ccc(-c2c[nH]c3ncc(-c4ccccc4)cc23)cc1C1CCCC1 [GSK650394] (first compound 0.4 µM, partner dose 0.16 µM) | 108% | 70.3% | 64.4% | 63.7% | 84.2% | 93.6% | 65.5% | 52.5% | 99.1% | 101% | 87.2% | 72.6% | 10.7% | 75.3% | 75.9% | 71.9%
2 | Cc1ccc(Nc2nccc(N(C)c3ccc4c(C)n(C)nc4c3)n2)cc1S(N)(=O)=O [Pazopanib] + COc1cc(N2CCC(N3CCN(C)CC3)CC2)ccc1Nc1ncc(Cl)c(Nc2ccccc2S(=O)(=O)C(C)C)n1 [NVP-TAE684] (first compound 0.4 µM, partner dose 0.08 µM) | 79.8% | 88.4% | 66.5% | 86.2% | 97.5% | 90.5% | 62.3% | 93.2% | 59.5% | 86.6% | 83.2% | 79.9% | 74.5% | 72.9% | 68.7% | 89.3%
3 | Cc1ccc(Nc2nccc(N(C)c3ccc4c(C)n(C)nc4c3)n2)cc1S(N)(=O)=O [Pazopanib] + COc1cc2c(Oc3ccc4[nH]c(C)cc4c3F)ncnc2cc1OCCCN1CCCC1 [cediranib] (first compound 0.4 µM, partner dose 0.4 µM) | 81.8% | 102% | 102% | 108% | 97% | 96.9% | 90.1% | 112% | 78.4% | 98.7% | 105% | 83.8% | 95.6% | 78.7% | 89.3% | 124%
4 | Cc1ccc(Nc2nccc(N(C)c3ccc4c(C)n(C)nc4c3)n2)cc1S(N)(=O)=O [Pazopanib] + O=C1NC(=O)/C(=C/c2ccc(-c3ccc(F)cc3O)o2)S1 [AS252424] (first compound 0.4 µM, partner dose 1 µM) | 67.6% | 86% | 96.2% | 100% | 94.7% | 94.3% | 99.3% | 85.7% | 97.5% | 77.4% | 108% | 76.1% | 101% | 97.5% | 89% | 121%
5 | Cc1ccc(Nc2nccc(N(C)c3ccc4c(C)n(C)nc4c3)n2)cc1S(N)(=O)=O [Pazopanib] + CCCCCCCCCCCC1=C(O)C(=O)C=C(O)C1=O [Embelin] (first compound 0.4 µM, partner dose 1.2 µM) | 70.6% | 96.9% | 89.8% | 111% | 96.7% | 99.6% | 75.6% | 99.1% | 87.7% | 89.4% | 94% | 96.6% | 101% | 84.8% | 91.4% | 101%
6 | CC1(C)CCC(c2ccc(Cl)cc2)=C(CN2CCN(c3ccc(C(=O)NS(=O)(=O)c4ccc(N[C@H](CCN5CCOCC5)CSc5ccccc5)c(S(=O)(=O)C(F)(F)F)c4)cc3)CC2)C1 + NCC(=O)Nc1ccc(-n2nc(C(F)(F)F)cc2-c2ccc3c(ccc4ccccc43)c2)cc1 [OSU03012] (first compound 0.4 µM, partner dose 1 µM) | 86.9% | 36% | 73.8% | 64.5% | 69.4% | 49.3% | 17% | 42.3% | 62.9% | 104% | 60.8% | 68.4% | 13.5% | 32.9% | 94.2% | 73.5%
7 | Cc1ccc(Nc2nccc(N(C)c3ccc4c(C)n(C)nc4c3)n2)cc1S(N)(=O)=O [Pazopanib] + COc1cc2ncnc(Nc3ccc(Oc4ccccc4)cc3)c2cc1OC [SrcI1] (first compound 0.4 µM, partner dose 2 µM) | 79.5% | 114% | 101% | 111% | 83.2% | 94.3% | 76.4% | 96.8% | 96.5% | 112% | 91.5% | 107% | 95% | 85.1% | 96% | 89.2%
8 | Cc1ccc(Nc2nccc(N(C)c3ccc4c(C)n(C)nc4c3)n2)cc1S(N)(=O)=O [Pazopanib] + CO[C@@H]1[C@H](N(C)C(=O)c2ccccc2)C[C@H]2O[C@]1(C)n1c3ccccc3c3c4c(c5c6ccccc6n2c5c31)C(=O)NC4 [Midostaurin] (first compound 0.4 µM, partner dose 0.08 µM) | 68.3% | 79.5% | 78.9% | 97.1% | 102% | 79.6% | 67.4% | 80.8% | 102% | 85.5% | 82.6% | 71.8% | 63.3% | 72.8% | 94.7% | 85.5%
9 | O=C(/C=C/c1cccnc1)NCCCCC1CCN(C(=O)c2ccccc2)CC1 + COC(=O)c1sccc1S(=O)(=O)Nc1ccc(Nc2ccccc2)cc1OC [GSK0660] (first compound 0.01 µM, partner dose 1 µM) | 33.7% | 108% | 104% | 39.8% | 76.3% | 31.5% | 76.8% | 84.5% | 118% | 91.8% | 87.2% | 94.6% | 108% | 85.3% | 83.7% | 97.6%
10 | Cc1ccc(Nc2nccc(N(C)c3ccc4c(C)n(C)nc4c3)n2)cc1S(N)(=O)=O [Pazopanib] + O=C(Nc1ccccc1)c1cc([N+](=O)[O-])ccc1Cl [GW9662] (first compound 0.4 µM, partner dose 2 µM) | 78.1% | 96.8% | 97.2% | 95.7% | 107% | 104% | 83% | 96% | 80.7% | 107% | 96.6% | 91.9% | 114% | 89.9% | 84.4% | 102%
11 | Cc1ccc(Nc2nccc(N(C)c3ccc4c(C)n(C)nc4c3)n2)cc1S(N)(=O)=O [Pazopanib] + CN(C)S(=O)(=O)c1ccc2c(c1)/C(=C/c1cc3c([nH]1)CCCC3)C(=O)N2 [SU6656] (first compound 0.4 µM, partner dose 0.4 µM) | 93.8% | 90.5% | 80.6% | 89.8% | 78.7% | 102% | 77.5% | 100% | 84% | 104% | 66.9% | 92.5% | 88.6% | 88.6% | 97.3% | 123%
12 | Cc1ccc(Nc2nccc(N(C)c3ccc4c(C)n(C)nc4c3)n2)cc1S(N)(=O)=O [Pazopanib] + CN1CCN(c2ccc3nc(-c4c(N)c5c(F)cccc5[nH]c4=O)[nH]c3c2)CC1 [Dovitinib] (first compound 0.4 µM, partner dose 0.1 µM) | 79.4% | 99.6% | 82.3% | 89.5% | 102% | 105% | 80.2% |  |  | 87.7% | 88.7% | 100% | 86.8% | 89.8% | 83.4% | 97%
13 | Cc1ccc(Nc2nccc(N(C)c3ccc4c(C)n(C)nc4c3)n2)cc1S(N)(=O)=O [Pazopanib] + O=c1cc(-c2cccc3c2Sc2ccccc2S3)oc(N2CCOCC2)c1 [KU55933] (first compound 0.4 µM, partner dose 1 µM) | 79.7% | 105% | 91% | 116% | 101% | 104% | 95.5% | 106% | 100% | 120% | 93.7% | 99.2% | 101% | 103% | 103% | 84.5%
14 | O=C(/C=C/c1cccnc1)NCCCCC1CCN(C(=O)c2ccccc2)CC1 + CN1CCN(c2ccc3nc(-c4c(N)c5c(F)cccc5[nH]c4=O)[nH]c3c2)CC1 [Dovitinib] (first compound 0.01 µM, partner dose 0.1 µM) | 46.2% | 90% | 110% | 66.5% | 76.6% | 52.1% | 84.8% |  |  | 103% | 96.4% | 87.9% | 89.3% | 106% | 83.7% | 109%
15 | Cc1ccc(Nc2nccc(N(C)c3ccc4c(C)n(C)nc4c3)n2)cc1S(N)(=O)=O [Pazopanib] + Oc1cc(-c2nc(-c3ccccc3)[nH]c2-c2ccncc2)ccc1Cl [L779450] (first compound 0.4 µM, partner dose 0.2 µM) | 70.1% | 109% | 91.4% | 93.9% | 79.3% | 82.8% | 82.9% | 85.5% | 72% | 76.1% | 76.1% | 99.5% | 77.4% | 57.8% | 109% | 104%
16 | CC1(C)CCC(c2ccc(Cl)cc2)=C(CN2CCN(c3ccc(C(=O)NS(=O)(=O)c4ccc(N[C@H](CCN5CCOCC5)CSc5ccccc5)c(S(=O)(=O)C(F)(F)F)c4)cc3)CC2)C1 + COc1cc2ncnc(Nc3ccc(Oc4ccccc4)cc3)c2cc1OC [SrcI1] (first compound 0.4 µM, partner dose 2 µM) | 97% | 72.2% | 80% | 78.3% | 96.5% | 103% | 88.8% | 77.2% | 94.5% | 84.5% | 80.3% | 85.6% | 27.6% | 102% | 102% | 51.9%
17 | O=C(/C=C/c1cccnc1)NCCCCC1CCN(C(=O)c2ccccc2)CC1 + CC(C)CCN1c2nc(Nc3cc(F)c(O)c(F)c3)ncc2N(C)C(=O)C1C [BID1870] (first compound 0.01 µM, partner dose 0.2 µM) | 45.8% | 101% | 99.4% | 49.9% | 89.4% | 36.8% | 90.1% | 100% | 76.7% | 71.8% | 89.5% | 108% | 106% | 110% | 98.6% | 116%
18 | CC1(C)CCC(c2ccc(Cl)cc2)=C(CN2CCN(c3ccc(C(=O)NS(=O)(=O)c4ccc(N[C@H](CCN5CCOCC5)CSc5ccccc5)c(S(=O)(=O)C(F)(F)F)c4)cc3)CC2)C1 + Oc1cc(-c2nc(-c3ccccc3)[nH]c2-c2ccncc2)ccc1Cl [L779450] (first compound 0.4 µM, partner dose 0.2 µM) | 80.4% | 67.1% | 54.6% | 46.2% | 62.4% | 62.4% | 80% | 59.1% | 61.2% | 64.6% | 48.4% | 72.3% | 11% | 72% | 97.8% | 97.9%
